Source: the supplement of paper PMC3334620
Over roughly 33,000 sequences, “E-score (-0.5 to 0.5)” has its median near -0.053; the highest 2% begin near 0.37. The list shows a part of the results.

molecular target: Hap1 (UniProt P0CE41); assay: PBM E-score (8-mer binding enrichment) (E-score (-0.5 to 0.5)); higher = stronger / more preferred TF binding; most listed sequences are background and not binding sites; settings: protein concentration: 200 nM; construct: GST-DNA-binding domain
Summary of the method: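 Using PURExpress in vitro transcription/translation, GST-tagged yeast transcription factors were made in full-length or DNA-binding-domain form. These were applied at about 100-200 nM to double-stranded universal all-10-mer Agilent arrays, and bound protein was detected with fluorescent anti-GST. Scans were normalised with masliner before the Universal PBM Analysis Suite assigned E-scores to ungapped eight-base words pooled with their reverse complements.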

UniProt P0CE41, sequence (P0CE41 whole entry, the tested form may be a part): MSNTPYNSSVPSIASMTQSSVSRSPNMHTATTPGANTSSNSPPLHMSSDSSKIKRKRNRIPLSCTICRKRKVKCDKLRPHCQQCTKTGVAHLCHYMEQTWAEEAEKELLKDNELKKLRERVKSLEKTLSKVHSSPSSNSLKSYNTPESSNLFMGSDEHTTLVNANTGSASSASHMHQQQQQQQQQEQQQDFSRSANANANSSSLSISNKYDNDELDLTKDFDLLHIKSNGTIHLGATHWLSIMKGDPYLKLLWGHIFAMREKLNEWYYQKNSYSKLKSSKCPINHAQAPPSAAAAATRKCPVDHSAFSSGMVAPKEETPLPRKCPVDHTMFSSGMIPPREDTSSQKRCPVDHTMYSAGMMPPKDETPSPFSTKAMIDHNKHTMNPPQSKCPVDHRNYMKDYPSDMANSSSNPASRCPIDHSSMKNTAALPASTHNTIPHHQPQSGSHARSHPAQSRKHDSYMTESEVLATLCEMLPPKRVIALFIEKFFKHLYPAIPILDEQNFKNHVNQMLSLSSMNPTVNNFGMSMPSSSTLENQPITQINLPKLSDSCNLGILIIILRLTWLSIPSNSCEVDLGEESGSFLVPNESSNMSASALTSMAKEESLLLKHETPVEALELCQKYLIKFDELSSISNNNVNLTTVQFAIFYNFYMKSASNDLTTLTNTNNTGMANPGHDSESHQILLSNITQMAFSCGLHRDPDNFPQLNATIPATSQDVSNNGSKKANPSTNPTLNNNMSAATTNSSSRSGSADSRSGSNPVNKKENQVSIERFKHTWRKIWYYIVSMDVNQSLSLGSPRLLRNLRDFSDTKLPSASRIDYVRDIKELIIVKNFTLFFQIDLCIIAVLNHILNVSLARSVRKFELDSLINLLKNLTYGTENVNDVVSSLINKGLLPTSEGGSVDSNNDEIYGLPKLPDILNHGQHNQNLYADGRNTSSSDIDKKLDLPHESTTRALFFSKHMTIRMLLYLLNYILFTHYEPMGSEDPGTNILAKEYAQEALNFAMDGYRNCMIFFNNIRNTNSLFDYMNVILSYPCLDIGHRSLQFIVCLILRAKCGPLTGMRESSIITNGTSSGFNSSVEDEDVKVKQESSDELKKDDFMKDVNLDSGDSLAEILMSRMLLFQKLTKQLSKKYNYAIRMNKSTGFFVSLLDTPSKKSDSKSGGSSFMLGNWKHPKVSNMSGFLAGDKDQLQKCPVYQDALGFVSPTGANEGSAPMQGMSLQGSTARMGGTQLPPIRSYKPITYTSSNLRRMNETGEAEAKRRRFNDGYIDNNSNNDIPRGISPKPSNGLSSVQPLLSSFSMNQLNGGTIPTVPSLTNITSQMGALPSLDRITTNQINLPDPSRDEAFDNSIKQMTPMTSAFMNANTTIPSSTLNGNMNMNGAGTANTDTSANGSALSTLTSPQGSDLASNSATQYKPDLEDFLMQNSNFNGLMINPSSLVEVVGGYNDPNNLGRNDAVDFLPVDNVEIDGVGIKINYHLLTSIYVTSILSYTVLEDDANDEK

Sequence | PBM E-score
GCGGGAGA | 0.207
CTGTTAGC | 0.00169
TACCCCGA | 0.398
GTACAAAA | -0.147
ACTCAAGG | -0.0313
ATTTCACC | -0.0306
CAACGTTC | 0.0138
AGGTTGGA | 0.0245
CTTTCCTA | -0.249
ATCGTGTG | -0.0878
CTGTTGAA | -0.107
ATTTTGGC | -0.123
ACTTTAAC | -0.153
ACTGGTTA | -0.141
ACAGGCCA | -0.0966
ATATCCCA | 0.145
CAGTTGTA | -0.0413
CGTCAATC | -0.00119
AGAAGTAG | -0.204
TCAGTCAA | -0.168
GATTGCGC | 0.0765
CAGGGCGC | 0.026
CGCGGAAC | 0.27
GGCGACAA | 0.142
ACAGCCAA | -0.216

Sequence | PBM E-score
ACAAGGGC | -0.112
CCCTAAGG | -0.179
AGTGTAAG | -0.264
AGCGGAGA | 0.276
GTCGGATA | 0.339
ACTATATC | -0.0639
CATAGCTA | -0.226
ATGGAGAG | -0.166
CGAGGCCA | 0.022
GGGGACCC | -0.043
AGGCGACG | -0.05
AATCTCCT | 0.0543
CCCGTGAC | 0.103
AACCATCA | -0.0631
ATTCATAC | 0.0162
GATTTTAA | 0.182
ACAACAGG | -0.124
CTAAAAAA | 0.0875
ATGAGTGC | -0.142
ATGCAAAT | -0.114
AAAATCAG | -0.167
CAAGGTAA | -0.0636
ATGGATTG | -0.109
CTTATCAA | -0.101
CTCTTATC | 0.18

Sequence | PBM E-score
GCTCTACA | -0.124
AGTACTAC | -0.193
AGAGAAGC | -0.169
GGCTGGCA | -0.143
CTGGTGTA | -0.214
CCATCTCG | 0.171
ACGATTGG | -0.123
AGCGGTTA | 0.0174
AGGGAGCG | -0.231
ATGCCTTC | -0.32
ATATTCAT | -0.222
CATACCGG | 0.355
ACCGTCTC | 0.0202
CCGTTGAC | 0.112
AAAGATCA | -0.151
ATCAAGGA | -0.163
ACCGACCA | 0.0766
ACACCTAC | -0.104
ATGTAAAA | -0.185
CCTTTCCC | 0.252
GCTTCGCA | -0.13
AACAGGGG | -0.247
ATACGATG | 0.0413
AGGGCAAG | -0.0376
GAGCGAGC | 0.0204

Sequence | PBM E-score
ACGTATGG | -0.0559
ACTTCAAG | -0.27
ACTGTCTA | -0.186
CACAGCCC | -0.159
CAAACCGA | 0.0483
GTGAAGGA | -0.189
ATGAACAC | -0.0814
AAAAATTT | 0.0632
GCAAAGAA | 0.0542
ACGAAAAT | -0.025
AGCGGTAA | 0.247
ATAGGCAC | -0.101
AGTTAGCA | -0.0943
ACTATACG | -0.00086
ACCAGAGG | -0.255
ACAATAGG | -0.0571
AATAAAGA | -0.039
AATGCATA | -0.123
GACTCCTC | -0.168
AGAGGCCA | -0.167
AGTGCGAG | -0.171
TCGTCTAA | -0.183
CCGGGATC | 0.365
TGTCCCAA | -0.233
AGCCCGAT | 0.287

Sequence | PBM E-score
ATCGTGGG | -0.0311
ATAGTCTG | -0.262
CGTATCTC | 0.296
GACTGGGA | -0.0484
ATAGCGAG | 0.15
GACAGGGC | -0.0413
CTCCCAAC | -0.141
ACTCAGCA | -0.00767
CTCGTCGC | -0.183
AGGTCAAA | -0.182
ACCTGTGC | -0.271
GGTTGCTA | -0.0748
CGAGTGAG | 0.0125
GTCTTCGA | -0.131
TCTCCAGA | -0.0567
AAGAGTGA | -0.275
GCGTCATA | -0.0808
AGAACACT | -0.0744
CTACCAAA | -0.0213
AGGCTTGG | -0.00216
AACCCGCA | 0.191
GAGTCGAC | -0.0613
ATAAATCG | 0.105
AGAAAGTC | 0.0177
ACATAGTC | -0.0221

Sequence | PBM E-score
ACTCTCAG | -0.292
ACCCTGCT | -0.129
CGTCGACA | -0.113
GACAAGCC | 0.0751
GGAATTAA | 0.419
CCGGAAAC | 0.426
GGTCAGAA | 0.102
CATACAAG | -0.102
CCATGAGC | -0.239
CTCCGAAC | 0.415
ATGTGTTG | -0.142
AGCCTGAC | -0.122
GCATGTAA | -0.177
ATCAGGCA | -0.194
ACCTCTCT | -0.293
GACCCACC | 0.141
AACGCTCC | -0.0565
GATACCCA | -0.112
CAATCTGG | -0.186
TAGATCAA | -0.149
CACATTAA | -0.231
AAAGTGAT | -0.0751
AAAGCGTA | 0.0231
GCACGATA | 0.0171
ACTAAAGC | 0.0709

Sequence | PBM E-score
ACTCATCC | -0.12
AAACAGCC | -0.0624
GCTACGAA | -0.16
ATGATTGG | -0.0096
ATTAAGCG | 0.00935
CCTGGGCA | -0.292
ACGTCTAT | -0.197
CGTCCGGA | 0.443
CACGTATA | -0.0707
AGCGTTCA | -0.1
GGCAAACC | 0.0569
TAACCTCA | -0.18
GCGGTGAA | 0.0893
AGCTATGA | -0.226
AAATCTGA | -0.167
CATCGGAC | 0.401
CATACCTC | -0.0827
GGACTCCA | 0.0548
AGAAAACG | -0.00956
CCCCATGA | -0.194
ACCATCCA | -0.144
CCATCAAG | -0.314
CGATATCA | 0.234
CACCGTCC | 0.143
AATCGCCG | 0.395

Sequence | PBM E-score
GCCGGTGA | 0.274
AGGCCGCA | -0.00433
ATTATATA | -0.0612
CCGACACA | 0.154
TCGCTAAA | -0.0067
CACTCACA | -0.00696
AGGTCCAT | 0.0933
ACTGTTCA | -0.0588
AGTAACGA | -0.105
GACACATA | -0.0738
AGGAACTC | -0.195
CGCTTGAG | -0.0317
AAGCGACA | 0.0662
AAGGTAGT | -0.0661
AACGCAGC | -0.0288
AGATAAAA | 0.00207
AATTTCGT | 0.00164
ACCTTTGA | -0.253
ATCCTCAA | -0.0487
GCAATCGA | -0.119
CGGGTAAC | 0.217
ACCAGCGA | -0.00815
ACGTCATG | -0.128
ATTACGCG | 0.154
CAGCCGCA | -0.142

Sequence | PBM E-score
GAATTCAC | -0.0015
GTATCCAA | -0.13
CACCGGAA | 0.398
CCATGTGA | -0.274
AAATTAGA | -0.0179
TCCAATCA | -0.0424
CTCGTTGA | -0.293
ATTGACAG | -0.00397
GAAAGTCC | 0.285
GGTACTAC | 0.142
CTTCGGGC | 0.208
AGTAGCCC | 0.0495
CGCAGTTC | 0.0273
CCACTAAG | 0.0818
AGTGGCAT | -0.0822
GCGAAGCA | 0.0421
AGATTTTA | -0.132
TATTGGGA | -0.249
GGAGGACC | 0.149
